Laboratory results from PubChem BioAssay (NCATS).
Several values for one entry are separate records, joined by “and”; a condition that tells them apart may be missing. Identical values can stand only once. Inconclusive means that the source gave no clear call. Such entries were picked first, then a sample of the others. For some of these results: Potencies beside an inconclusive call are fits to weak or partial responses and may not hold up. For some of these results: A note “side channel” means that the fit belongs to a control or component signal, not to the main read-out. Some compounds were tested as several samples or in several runs, with calls that do not always agree. Activity calls are given as the source filed them. Unless noted, calls follow the shape of the dose curve; as a rule, active = well fitted curve in the direction sought with a large enough effect; inconclusive = small, poorly fitted or top-dose-only effect, or another doubt; inactive = no such curve, though single readings can be large; an effect the other way counts as inactive or inconclusive.

What was measured:
[1] = Cell Viability - H-4-II-E (AID 543);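 also: cells exposed to compound for 40 hours; nearly all actives have a fitted effect of over 35% in size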; also: potency is read from the fitted curve at half-maximal effect
In short: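 qHTS, rat hepatoma H-4-II-E, 1500 cells/well; 40 hr compound exposure, 37 °C; CellTiter-Glo ATP luminescence after 20 min RT; AC50 by standard Hill fit.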

[2] = MultiTox-Fluor Cytotoxicity Assay - LYMP1-001 - Dead Cells (AID 946);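 also: 0% = DMSO and 100% = tetraoctylammonium bromide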
In short: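 LYMP1-001 lymphoblastoid cells (2500/well) treated 16 h at 37 C. Dead-cell protease cleavage of bis-AAF-R110 read at Ex/Em 485/520. Normalized to DMSO and 15 uM tetraoctylammonium bromide; AC50 from Hill fits.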

[3] = molecular target: Estrogen receptor (Homo sapiens) (UniProt P03372); test: qHTS assay for small molecule agonists of estrogen receptor alpha signaling (AID 588514; calls by dose curve;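 also: 0% = vehicle only and 100% = reference agonist; nearly all actives have a fitted effect of over 70% in size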); settings: ER-alpha-UAS-bla HEK293, beta-lactamase ratio, 18 h; activation: at 76.8 µM (top of the series), percent of full estradiol response, vehicle zero
Chain of UniProt P03372 (P03372 whole entry, looked up): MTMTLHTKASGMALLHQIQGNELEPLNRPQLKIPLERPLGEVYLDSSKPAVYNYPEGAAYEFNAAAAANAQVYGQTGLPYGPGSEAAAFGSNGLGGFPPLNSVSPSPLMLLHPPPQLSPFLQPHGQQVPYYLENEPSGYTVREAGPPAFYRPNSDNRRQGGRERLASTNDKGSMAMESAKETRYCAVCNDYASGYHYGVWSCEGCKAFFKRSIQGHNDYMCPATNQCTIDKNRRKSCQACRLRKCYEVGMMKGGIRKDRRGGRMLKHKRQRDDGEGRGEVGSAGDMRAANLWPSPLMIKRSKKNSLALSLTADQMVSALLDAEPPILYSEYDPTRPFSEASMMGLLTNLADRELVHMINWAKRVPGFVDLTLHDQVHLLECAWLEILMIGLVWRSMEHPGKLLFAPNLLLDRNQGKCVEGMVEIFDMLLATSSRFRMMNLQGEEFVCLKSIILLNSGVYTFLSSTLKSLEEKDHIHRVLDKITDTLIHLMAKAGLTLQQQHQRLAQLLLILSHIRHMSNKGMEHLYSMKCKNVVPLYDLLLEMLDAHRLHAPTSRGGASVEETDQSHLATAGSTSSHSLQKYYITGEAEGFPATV
In short: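 Read-out: CCF4 fluorescence from a beta-lactamase reporter in ER-alpha-UAS-bla HEK 293 cells after 18 hrs of compound exposure at 37 C. Normalized to 20 nM 17-beta-estradiol (100%) and DMSO (0%).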

[4] = molecular target: Peroxisome proliferator-activated receptor gamma (Homo sapiens) (UniProt P37231); test: qHTS assay for small molecule agonists of peroxisome proliferator-activated receptor gamma signaling (AID 588536; active = well fitted curve in the direction sought with a large enough effect in the signal ratio, with a control signal flat, not every such curve was filed as active; inconclusive = small, poorly fitted or top-dose-only effect, or effect the other way, or a change in a side signal; inactive = no such curve, though single readings can be large or run the other way; the % refers to the signal ratio;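 also: 0% = DMSO basal wells and 100% = rosiglitazone at 2 µM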); settings: HEK293 PPARg-UAS-bla, beta-lactamase ratio, 16 h; activation: at 76.7 µM (top of the series), percent of rosiglitazone response, DMSO as zero unless noted
In short: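 Cells were plated and held 6–6.5 h at 37 C, then compounds were added as a titration series. After a further 16 h, CCF4 dye was loaded for 2 h at room temperature and emission at 460/530 nm recorded.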

[5] = molecular target: Thyroid hormone receptor beta (Homo sapiens) (UniProt P10828); test: qHTS assay for small molecule agonists of thyroid hormone receptor beta signaling (AID 588545; calls by dose curve; also: potency is read from the fitted curve at half-maximal effect); settings: TR-UAS-bla GripTite HEK 293, beta-lactamase ratio, agonist mode, 18 h; activation: at 76.7 µM, percent of T3 response, DMSO as zero
Chain of UniProt P10828 (P10828 whole entry, looked up): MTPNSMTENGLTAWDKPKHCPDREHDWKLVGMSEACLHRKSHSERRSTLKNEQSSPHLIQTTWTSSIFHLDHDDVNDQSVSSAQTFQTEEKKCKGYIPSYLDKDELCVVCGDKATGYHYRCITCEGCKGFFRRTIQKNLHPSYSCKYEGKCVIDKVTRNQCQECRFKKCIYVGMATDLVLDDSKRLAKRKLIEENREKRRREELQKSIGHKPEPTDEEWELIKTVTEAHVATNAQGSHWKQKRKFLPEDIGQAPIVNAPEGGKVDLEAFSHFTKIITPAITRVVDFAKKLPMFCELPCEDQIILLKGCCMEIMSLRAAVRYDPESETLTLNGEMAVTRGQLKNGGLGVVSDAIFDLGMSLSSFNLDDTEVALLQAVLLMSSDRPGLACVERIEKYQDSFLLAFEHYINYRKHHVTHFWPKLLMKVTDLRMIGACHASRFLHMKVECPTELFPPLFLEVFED
In short: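 Cells (2500/well) were seeded, incubated 4 hrs at 37 C, dosed with a compound series, incubated 18 hrs, loaded with CCF4 dye for 2 hrs at RT, then read for fluorescence. Data were scaled between DMSO (0%) and 10 nM T3 (100%).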

[6] = qHTS assay for small molecule agonists of the antioxidant response element (ARE) signaling pathway (AID 651741; active = well fitted activation curve with a large enough effect in the signal ratio; inconclusive = small, poorly fitted or top-dose-only effect, or effect the other way, or a change in a side signal; the % refers to the signal ratio; also: potency is read from the fitted curve at half-maximal effect; as to activation: % of control where 0% means no effect); settings: HepG2 ARE-bla reporter, beta-lactamase FRET ratio, 16 h; activation: at 96 µM (top of the series) unless noted
In short: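 Agonist activity is measured as ARE-driven beta-lactamase expression in a stable HepG2 reporter line, using 16 h compound treatment at 37 C and a FRET substrate fluorescence readout after 2 h.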

[7] = qHTS assay to identify small molecules that stimulate interleukin-8 (IL-8) secretion (AID 651758; active = well fitted activation curve with a large enough effect in the signal ratio; inconclusive = small, poorly fitted or top-dose-only effect, or effect the other way, or a change in a side signal; the % refers to the signal ratio; also: potency is read from the fitted curve at half-maximal effect; as to activation: 0% is about no effect); settings: HTRF ratio (665/615); activation: at 92.2 µM (top of the series)
In short: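 Secreted IL-8 measured homogeneously by TR-FRET (two labelled anti-IL-8 antibodies, 1-3 h at room temperature) after a 16 h, 37 C compound treatment of THP-1 cells at 2000 cells/well.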

[8] = Cell Viability - LYMP2-005 (AID 967);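 also: plate controls were DMSO only for no effect and 92 µM tetraoctylammonium bromide control for full effect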
In short: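 LYMP2-005 human lymphoblastoid cells (2500/well) were treated with compounds for 24 h at 37 C. Intracellular ATP was then measured by CellTiter-Glo luminescence after 30 min at room temperature. AC50 values came from Hill-equation fits of qHTS concentration-response data.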

[9] = Cell Viability - LYMP2-002 (AID 977);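 also: compound exposure lasted 24 h at 37 °C; plate controls were DMSO only for no effect and 92 µM tetraoctylammonium bromide for full effect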
In short: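 Human lymphoblastoid cells (2500/well) in complete medium were preincubated 5 hr at 37 C, then exposed to compounds for 24 hr at 37 C. Intracellular ATP was read by CellTiter-Glo luminescence; AC50 came from Hill-equation concentration-response fits.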

[10] = molecular target: Bile acid receptor (Homo sapiens) (UniProt Q96RI1); test: qHTS assay for small molecule agonists of farnesoid X receptor signaling (AID 588527; calls by dose curve;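 also: 0% = vehicle basal and 100% = reference agonist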); settings: HEK293T FXR-UAS-bla, beta-lactamase ratio, 16 h; activation: hits give high values
Chain of UniProt Q96RI1 (Q96RI1 whole entry, looked up): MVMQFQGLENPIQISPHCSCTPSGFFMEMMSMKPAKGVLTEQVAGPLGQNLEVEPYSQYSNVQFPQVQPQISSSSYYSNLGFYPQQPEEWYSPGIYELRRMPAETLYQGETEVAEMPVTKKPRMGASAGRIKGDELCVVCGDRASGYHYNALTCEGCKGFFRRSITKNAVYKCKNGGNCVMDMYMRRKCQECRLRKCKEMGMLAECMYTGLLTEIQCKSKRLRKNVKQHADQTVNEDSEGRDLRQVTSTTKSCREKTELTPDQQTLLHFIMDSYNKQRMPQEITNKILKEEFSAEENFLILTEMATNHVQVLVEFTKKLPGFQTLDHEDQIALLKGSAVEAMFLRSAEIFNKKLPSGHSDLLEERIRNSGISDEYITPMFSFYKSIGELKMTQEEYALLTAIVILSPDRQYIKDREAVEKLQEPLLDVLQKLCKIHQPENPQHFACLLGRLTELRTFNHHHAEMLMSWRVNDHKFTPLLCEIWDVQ
In short: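 FXR-UAS-bla HEK293T cells (10% dialyzed FBS) preincubated 5-7 h at 37 C, then compounds at up to 92 uM for 16 h at 37 C. CCF4 beta-lactamase read-out after 2 h RT. Normalized to chenodeoxycholic acid (100 uM) and DMSO; Hill fit gave EC50 and efficacy.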

[11] = molecular target: Peroxisome proliferator-activated receptor delta (Homo sapiens) (UniProt Q03181); test: qHTS assay for small molecule antagonists of peroxisome proliferator-activated receptor delta signaling (AID 588535; active = well fitted inhibition curve with a large enough effect in the signal ratio, with a control signal flat, not every such curve was filed as active; inconclusive = small, poorly fitted or top-dose-only effect, or effect the other way, or a change in a side signal; inactive = no such curve, though single readings can be large or run the other way; the % refers to the signal ratio); settings: HEK293T PPARd-UAS-bla, beta-lactamase FRET ratio, 18 h; activity change, negative = inhibition: at 76.7 µM (top of the series) unless noted
Chain of UniProt Q03181 (Q03181 whole entry, looked up): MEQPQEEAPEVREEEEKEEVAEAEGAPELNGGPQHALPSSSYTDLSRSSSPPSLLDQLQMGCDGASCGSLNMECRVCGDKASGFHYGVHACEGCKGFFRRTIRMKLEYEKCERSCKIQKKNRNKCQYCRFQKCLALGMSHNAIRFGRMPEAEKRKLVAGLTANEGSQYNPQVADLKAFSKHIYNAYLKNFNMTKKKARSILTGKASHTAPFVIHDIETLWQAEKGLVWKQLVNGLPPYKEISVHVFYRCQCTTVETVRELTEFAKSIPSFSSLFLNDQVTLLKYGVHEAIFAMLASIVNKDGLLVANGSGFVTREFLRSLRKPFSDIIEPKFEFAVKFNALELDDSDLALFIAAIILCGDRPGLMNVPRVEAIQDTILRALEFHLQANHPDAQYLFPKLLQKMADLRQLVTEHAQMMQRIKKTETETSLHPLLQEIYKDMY
In short: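 Antagonist-mode qHTS using GeneBLAzer PPAR-delta-UAS-bla HEK293T cells; compound exposure 18 hrs at 37 C over a titration. Ratiometric CCF4 fluorescence at 460/530 nm; concentration-response points fitted to the Hill equation.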

[12] = molecular target: Peroxisome proliferator-activated receptor gamma (Homo sapiens) (UniProt P37231); test: qHTS assay for small molecule antagonists of peroxisome proliferator-activated receptor gamma signaling (AID 588537; active = well fitted inhibition curve with a large enough effect in the signal ratio, with a control signal flat, not every such curve was filed as active; inconclusive = small, poorly fitted or top-dose-only effect, or effect the other way, or a change in a side signal; the % refers to the signal ratio;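 also: reporter cells co-stimulated with 50 nM rosiglitazone agonist during compound treatment; % of control where 0% means no effect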); settings: HEK293 PPARg-UAS-bla, beta-lactamase ratio, antagonist mode; activity, negative = inhibition: at 76.8 µM (top of the series)
In short: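 Cell-based beta-lactamase assay; GW9662 served as the antagonist control. Stimulation used rosiglitazone, final 50 nM, 16 h, 37 C.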

[13] = molecular target: Retinoic acid receptor RXR-alpha (Homo sapiens) (UniProt P19793); test: qHTS assay for small molecule agonists of retinoid X receptor alpha signaling (AID 588544; calls by dose curve;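 also: 0% = DMSO basal wells and 100% = reference agonist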); settings: HEK293T RXRa-UAS-bla, beta-lactamase reporter, 18 h
Chain of UniProt P19793 (P19793 whole entry, looked up): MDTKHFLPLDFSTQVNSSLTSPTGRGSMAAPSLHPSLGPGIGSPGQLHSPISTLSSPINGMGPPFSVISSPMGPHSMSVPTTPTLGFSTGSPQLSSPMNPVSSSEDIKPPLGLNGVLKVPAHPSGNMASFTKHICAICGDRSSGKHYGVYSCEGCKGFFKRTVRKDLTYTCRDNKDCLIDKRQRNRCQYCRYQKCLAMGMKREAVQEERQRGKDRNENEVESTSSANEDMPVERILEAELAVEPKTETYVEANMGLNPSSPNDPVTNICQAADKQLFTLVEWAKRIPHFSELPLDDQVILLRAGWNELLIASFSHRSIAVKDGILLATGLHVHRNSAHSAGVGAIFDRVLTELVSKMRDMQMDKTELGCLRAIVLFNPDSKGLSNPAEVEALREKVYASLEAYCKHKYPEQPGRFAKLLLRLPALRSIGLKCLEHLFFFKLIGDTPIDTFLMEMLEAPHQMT

[14] = qHTS assay for small molecule disruptors of the mitochondrial membrane potential - 1 hr assay (AID 651754; calls by dose curve; also: potency is read from the fitted curve at half-maximal effect; nearly all actives have a fitted effect of over 35% in size); settings: ratio change, negative = depolarisation: at 92.2 µM (top of the series)
In short: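 Read-out: dye fluorescence at 490 nm ex/535 nm em (monomers) and 540 nm ex/590 nm em (aggregates) in HepG2 cells. Compound exposure 1 hr at 37C, followed by 30 min dye loading.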

[15] = qHTS assay for small molecule agonists of the antioxidant response element (ARE) signaling pathway measured by Nrf2-dependant transcriptional activity (AID 720636; active = well fitted curve in the direction sought with a large enough effect in the repeat runs; inconclusive = weak or mixed curves; inactive = no such curve, though single readings can be large; an effect the other way counts as inactive or inconclusive; also: potency is read from the fitted curve at half-maximal effect)
In short: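 Attachment 6 hr at 37 C, then compound versus DMSO vehicle for 16 hr in ARE-luc HepG2 cells (1% dialyzed FBS); luminescence recorded 30 min after ONE-Glo addition at room temperature.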

[16] = Cell Viability - NIH 3T3 (AID 541); settings: NIH 3T3 cell viability, qHTS; activity change, negative = cytotoxicity: at 92.2 µM (top of the series);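 also: cells exposed to compound for 40 hours; plate controls were DMSO alone for no effect and tamoxifen positive control for full effect; nearly all actives have a fitted effect of over 25% in size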
In short: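 qHTS format; 40 hr compound exposure, 37 °C; CellTiter-Glo luminescence (cellular ATP) read-out after 20 min at RT. Decrease in ATP = cytotoxicity; AC50 from standard Hill fit.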

[17] = Cellular Toxicity (caspase-3) Hek293 (AID 664); settings: HEK293 caspase-3 activation, DMSO = 0%, 100 µM tamoxifen = 100%; at 92.2 µM (top of the series);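 also: cells exposed to compound for 16 h at 37 °C before readout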
In short: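 Luminescent Caspase-Glo 3/7 readout (aminoluciferin release) in HEK293 cells after 16 h compound treatment, 37 °C. Normalization: DMSO = basal, 100 uM tamoxifen = 100% stimulation. Concentration-response fitted with standard Hill equation for AC50.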

[18] = qHTS assay for small molecule activators of the p53 signaling pathway (AID 651743; active = well fitted activation curve with a large enough effect in the signal ratio, not every such curve was filed as active; inconclusive = small, poorly fitted or top-dose-only effect, or a change in a side signal; the % refers to the signal ratio; also: % of control where 0% means no effect); settings: HCT-116 p53RE-bla, beta-lactamase FRET ratio, 16 h; activation: hits give high values
In short: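 A beta-lactamase reporter under p53 response element control, stably carried by HCT-116 cells, reported pathway activation. Test compounds were applied for 16 hours at 37 C, and fluorescence was measured 2 hours after adding the B/G FRET substrate.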

[19] = molecular target: Nuclear receptor ROR-gamma (Homo sapiens) (UniProt P51449); test: qHTS assay for small molecule antagonists of the retinoid-related orphan receptor gamma (ROR-gamma) signaling pathway (AID 651802);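 also: CHO cells with doxycycline-induced ROR-gamma expression; luciferase reporter luminescence driven by ROR response element; % is scaled to controls: 0 for no effect and ±100 for the full control effect; nearly all actives have a fitted effect of over 60% in size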
Chain of UniProt P51449 (P51449 whole entry, looked up): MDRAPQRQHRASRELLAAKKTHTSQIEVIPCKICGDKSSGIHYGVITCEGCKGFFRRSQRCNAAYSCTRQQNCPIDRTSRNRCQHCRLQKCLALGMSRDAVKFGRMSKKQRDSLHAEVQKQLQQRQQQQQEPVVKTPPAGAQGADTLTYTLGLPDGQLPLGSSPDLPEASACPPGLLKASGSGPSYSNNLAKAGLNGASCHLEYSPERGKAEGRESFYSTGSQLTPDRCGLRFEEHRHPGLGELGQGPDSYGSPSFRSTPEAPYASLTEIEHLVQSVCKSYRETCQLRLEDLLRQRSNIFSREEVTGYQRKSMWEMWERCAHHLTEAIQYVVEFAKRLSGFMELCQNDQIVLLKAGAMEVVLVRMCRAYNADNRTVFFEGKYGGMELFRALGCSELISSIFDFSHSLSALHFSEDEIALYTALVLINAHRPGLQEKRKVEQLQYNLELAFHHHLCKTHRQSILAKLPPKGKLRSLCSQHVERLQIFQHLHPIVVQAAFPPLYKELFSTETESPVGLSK
In short: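 Luciferase read-out: ONE-Glo luminescence after 30 min at room temperature, following 16hr doxycycline induction at 37C, 5% CO2 of CHO cells with TET-inducible ROR and RORE-LUC reporter; decreased luminescence = reduced reporter activity.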

[20] = qHTS assay for small molecule antagonists of the retinoid-related orphan receptor gamma (ROR-gamma) signaling pathway - cell viability counter screen (AID 720652; active = well fitted curve in the direction sought with a large enough effect in the repeat runs; inconclusive = weak or mixed curves; inactive = no such curve, though single readings can be large; an effect the other way counts as inactive or inconclusive;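 also: CHO reporter cells with doxycycline-induced ROR-gamma expression; compound exposure lasted 16 hr before ATP read; % is scaled to controls: 0 for no effect and ±100 for the full control effect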)
In short: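 CHO RORE-LUC/TET-ROR line, 1,000 cells/well, 37 C 5% CO2 5 hr; cpd or DMSO + doxycycline induction, 16 hr. CellTiter-Glo, 30 min RT, luminescence = ATP content.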

[21] = Cell Viability - HUV-EC-C (AID 542);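 also: cells exposed to compound for 40 hours; % is scaled to controls: 0 for no effect and ±100 for the full control effect; nearly all actives have a fitted effect of over 35% in size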
In short: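 Luminescent ATP read-out (CellTiter-Glo, 20 min room temperature) after 40 hr compound treatment of HUV-EC-C cells at 37 °C. Concentration-response data fitted with the standard Hill equation to give AC50; tamoxifen and doxorubicin served as positive controls.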

[22] = Cell Viability - LYMP2-004 (AID 966); settings: LYMP2-004 lymphoblastoid cell viability, qHTS; activity change, negative = cytotoxicity: at 92.2 µM (top of the series);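 also: plate controls were DMSO only for no effect and tetraoctylammonium bromide control for full effect; nearly all actives have a fitted effect of over 65% in size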
In short: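 Luminescent ATP read-out (CellTiter-Glo, 30 min RT) after 24 hr compound exposure at 37 C; 2500 lymphoblastoid cells/well, complete medium. Decrease in ATP = cytotoxicity; AC50 from standard Hill model.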

[23] = molecular target: Glucocorticoid receptor (Homo sapiens) (UniProt P04150); test: qHTS assay for small molecule agonists of glucocorticoid receptor signaling (AID 588532; active = well fitted curve in the direction sought with a large enough effect in the signal ratio, with a control signal flat; inconclusive = small, poorly fitted or top-dose-only effect, or a change in a side signal; inactive = no such curve, though single readings can be large or run the other way; the % refers to the signal ratio; also: potency is read from the fitted curve at half-maximal effect); settings: HeLa MMTV-bla, beta-lactamase ratio, agonist, 18 h; activation: hits give high values, percent of dexamethasone control, DMSO zero
In short: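 Quantitative HTS using CellSensor MMTV-bla HeLa cells in charcoal/dextran-treated serum; compounds tested up to 92 uM. After 18 h at 37 C, CCF4 dye reported reporter induction.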

[24] = Cell Viability - LYMP2-023 (AID 975);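 also: cellular ATP measured by luciferase luminescence as viability proxy; plate controls were DMSO only for no effect and 92 µM tetraoctylammonium bromide control for full effect; nearly all actives have a fitted effect of over 55% in size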
In short: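 CellTiter-Glo luminescence after 30 min at room temperature; decrease in intracellular ATP reflects toxicity. Cells: human lymphoblastoid line, 2500/well, 24 hr compound exposure at 37 C. AC50 fitted to standard Hill equation from concentration-response.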

[25] = molecular target: Estrogen receptor (Homo sapiens) (UniProt P03372); test: qHTS assay for small molecule antagonists of estrogen receptor alpha signaling (AID 588513; active = well fitted curve in the direction sought with a large enough effect in the signal ratio, with a control signal flat, not every such curve was filed as active; inconclusive = small, poorly fitted or top-dose-only effect, or effect the other way, or a change in a side signal; inactive = no such curve, though single readings can be large or run the other way; the % refers to the signal ratio; also: % is scaled to controls: 0 for no effect and ±100 for the full control effect); settings: ER-alpha-UAS-bla HEK293, beta-lactamase ratio, antagonist mode
In short: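 Antagonist mode: inhibition of 0.5 nM 17-beta-estradiol-driven beta-lactamase reporter in HEK 293 ER-alpha-UAS-bla cells, 18 h at 37C, CCF4 readout after 2 h at RT. Normalised to estradiol and DMSO; titration fitted to Hill.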

[26] = molecular target: Retinoic acid receptor RXR-alpha (Homo sapiens) (UniProt P19793); test: qHTS assay for small molecule antagonists of retinoid X receptor alpha signaling (AID 588546; active = well fitted inhibition curve with a large enough effect in the signal ratio, with a control signal flat, not every such curve was filed as active; inconclusive = small, poorly fitted or top-dose-only effect, or effect the other way, or a change in a side signal; inactive = no such curve, though single readings can be large or run the other way; the % refers to the signal ratio; also: potency is read from the fitted curve at half-maximal effect;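 as to max response: cells stimulated with 9-cis-retinoic acid as agonist; % is scaled to controls: 0 for no effect and ±100 for the full control effect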); settings: HEK293T RXRa-UAS-bla, beta-lactamase ratio, antagonist mode
In short: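 Beta-lactamase reporter inhibition, read as CCF4 fluorescence ratio (ex 405, em 460/530 nm) after 2 h at RT. HEK293T UAS-bla cells, 2500/well, were stimulated with 9-cis-RA at 500 or 100 nM final alongside test compound for 18 h at 37 C.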

[27] = molecular target: Thyroid hormone receptor beta (Homo sapiens) (UniProt P10828); test: qHTS assay for small molecule antagonists of thyroid hormone receptor beta signaling (AID 588547; active = well fitted inhibition curve with a large enough effect in the signal ratio, with a control signal flat, not every such curve was filed as active; inconclusive = small, poorly fitted or top-dose-only effect, or effect the other way, or a change in a side signal; the % refers to the signal ratio;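 also: cells stimulated with 0.4 nM T3 agonist during compound exposure; % is scaled to controls: 0 for no effect and ±100 for the full control effect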); settings: TR-UAS-bla HEK293, beta-lactamase ratio, antagonist mode, 18 h
In short: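 Inhibition of T3-driven (0.4nM final) beta-lactamase reporter activity was measured over 0.59 nM to 92 uM compound after 18 h at 37 C. The cells were GripTite HEK293 TR-UAS-bla in charcoal/dextran-stripped serum, with CCF4 ratio read-out and IC50 from Hill fits.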

[28] = qHTS assay for small molecule activators of the nuclear factor-kappa B (NF-kB) signaling pathway (AID 651749; active = well fitted activation curve with a large enough effect in the signal ratio; inconclusive = small, poorly fitted or top-dose-only effect, or a change in a side signal; the % refers to the signal ratio; also: potency is read from the fitted curve at half-maximal effect); settings: NF-kB-bla ME-180 cells, beta-lactamase FRET ratio, 16 h; activation: hits give high values
In short: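 FRET-based beta-lactamase detection in ME-180 cells reports NF-kB response-element-driven transcription following overnight (16 hr) compound treatment.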

[29] = activation: at 76.7 µM (top of the series) unless noted
Tags tell the direction and shape of the fitted curve or compound fluorescence and quenching.

COc1ccc(C=O)cc1
inactive: Potency [1] | Potency [2] | Potency [3] | Potency [4] | Potency [6] | Potency [7]
inconclusive: Potency [5] 17.8 µM [side channel, falling, single point]

COC(=O)Nc1cccc(OC(=O)Nc2cccc(C)c2)c1
inconclusive: Potency [1] 31.6 µM [falling, single point] | activity change, negative = inhibition [11] -35.3% | activity, negative = inhibition [12] -6.97% | Potency [6] 33.5 µM [activator, partial curve, poor fit] | activation [7] -18.3% | Potency [15] 13.3 µM [activator, partial curve, poor fit]
active: Potency [14] 42.2 µM
inactive: Potency [8] | Potency [9] | activation [10] 0.654% | Potency [13, 29]

Cc1cccc(C#N)c1
inconclusive: activity, negative = inhibition [12] 21.1% | Potency [6] 33.5 µM [side channel, falling, single point] | activation [7] -27.7%
inactive: Potency [16] | caspase-3 activation [17] -0.788% | Potency [4] | activation [18] -3.72% | Potency [19] | Potency [20]

CC(=O)/C=C/c1ccccc1
inactive: Potency [21] | Potency [22] | Potency [4] | Potency [6] | Potency [7] | Potency [19]
inconclusive: Potency [23] 0.224 µM [side channel, falling, full curve, poor fit] | activity, negative = inhibition [12] -4.24%

Clc1nc(Cl)nc(Nc2ccccc2Cl)n1
inactive: Potency [24] | activity, negative = inhibition ([25]; at 76.9 µM (top of the series)) 12.3% | activation ([13]; at 76.7 µM (top of the series)) -0.134% | max response [26] 8.47% | activation [18] -1.67% and -3.76%
active: Potency [28] 25.1 µM
inconclusive: activity, negative = inhibition ([25]; activity, negative = inhibition: at 76.9 µM (top of the series) unless noted) -41.4% | activity change, negative = inhibition [11] 16.4% and -7.41% | activation [13, 29] 13.8% | Potency [5] 50.1 µM [activator, single point] | Potency [26] 35.5 µM [activator, single point] | activity change % (negative = inhibition) [27] 8.9% | Potency [6] 47.3 µM [activator, partial curve] | Potency [7] 47.3 µM [activator, partial curve, poor fit]
